The text below walks through data of PubChem BioAssay (NCI).

Values joined by “and” are separate entries in the source; they are usually repeats but may differ in a detail not shown here. Equal values may be shown once.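 Each compound was tested at five concentrations against cells in 96-well plates for 48 hours. GI50 is the concentration that inhibits growth by half. TGI: total growth inhibition.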

The assay relates to NCI-H322M lung. As to the kind of experiment: NCI tumour cell line growth inhibition, 48 h.
With `CCCCCCCCCCCCCCCC(=O)OCC1OC(OC)C(NC(=O)N(CCCl)N=O)C(O)C1O` (stereo unspecified), the TGI stood at 58 µM.

Consider `CN(C)c1ccc(Nc2c3ccccc3nc3cc(NC(=O)CCN4CCCC4)ccc23)cc1`, for which the GI50 was 0.451 µM and the TGI turned out to be 1.96 µM. Consider `COc1cc2[nH]c(=O)c3cc(C)cc4c(Cl)nc(c1OC)c2c43`, for which the TGI is greater than 100 µM. The same measure, in the same setting: in the case of `N#Cc1cc([N+](=O)[O-])ccc1NC(=O)C(=O)C(C(=O)c1ccc2ccccc2c1)C1OCc2ccccc21` (stereo unspecified) it was 23.5 µM.

With `O=C(Cc1csc2nc(-c3ccc(Br)cc3)cn12)N/N=C/c1ccc(Cl)cc1Cl`, the GI50 is 24.3 µM and the TGI was 69.9 µM.

On to `CC(=O)OCC1OC(n2c(N)c(C#N)c(-c3cccc(Cl)c3)c(C#N)c2=S)C(OC(C)=O)C(OC(C)=O)C1OC(C)=O` (stereo unspecified), for which the TGI is greater than 100 µM.

As for `O=C(O)c1cn(C2CC2)c2cc(N3CCNCC3)c(F)cc2c1=O`, the GI50 was greater than 100 µM and the TGI was greater than 100 µM. On to `c1ccc2cc(C[n+]3ccn(Cc4ccc5ccccc5n4)c3)ccc2c1`, for which the GI50 was 2.86 µM and 7.18 µM; the TGI is 13.8 µM and 21.1 µM.

On to `O=C(c1nn(-c2ccc(Cl)cc2)cc1O)n1nc(C(F)(F)F)cc1-c1ccccc1`, for which the GI50 is 0.816 µM and the TGI is greater than 100 µM. The like results for `OCCn1cc(-c2cnc3nnn(Cc4ccc5ncccc5c4)c3n2)cn1` were, in that order, greater than 100 µM and greater than 100 µM. As to `O=C1C=C(O)c2c(O)ccc(O)c2C1=O`, the TGI is greater than 100 µM.

In turn, `CCCC(C)c1c(Cl)nc(Cl)nc1Cl` (stereo unspecified) registered a TGI of 25.4 µM.

With `O=c1c2cc(I)ccc2nc(SCc2nnco2)n1Cc1ccccc1`, the TGI is greater than 100 µM. As for `Cc1ccc(/C=C/C(=O)c2ccc([N+](=O)[O-])cc2)cc1`, the TGI is greater than 100 µM.

The compound `CN(C)CC1CCCc2ccccc2C1=O` (stereo unspecified) registered a TGI of 26.6 µM. Compound `O=C(NNS(=O)(=O)c1ccccc1)c1csc(NC(=S)NC2CCCCC2)n1` displayed a TGI greater than 100 µM. As for `COc1cc(S(=O)(=O)Nc2ccc(-c3csc(N4C(=O)C(C)SC4c4ccccc4)n3)cc2)ccc1Cl` (stereo unspecified), the TGI is greater than 100 µM. On the same count and under the same terms, the value for `CC(=O)c1ccc2c3c1O[C@H]1c4[nH]c5ccccc5c4C[C@@]4(O)[C@@H](C2)N(CC2CC2)CC[C@]314` was 17 µM; that for `O=C1CC(C(COCc2ccccc2)OCc2ccccc2)CC(=O)N1` (stereo unspecified) was greater than 100 µM; that for `O=C1CCC2(c3ccc(Cl)cc3)Nc3ncncc3N12` (stereo unspecified) was greater than 10 µM. Take `COc1ccc(N2C(=O)C3c4[nH]c5ccccc5c4C4c5ccccc5CC4C3C2=O)cc1` (stereo unspecified): the TGI was greater than 100 µM. With `COc1ccc(OC(C)C(=O)O)c2c1CCCC2=O` (stereo unspecified), the TGI was greater than 100 µM.

Take `COc1ccc(N=Nc2c(-c3ccccc3)nn(C(=O)CC(=O)Nc3ccccc3Cl)c2-c2ccccc2)cc1`: the TGI is greater than 100 µM.

Regarding `O=C(Cc1ccc(Nc2ccnc(C(F)(F)F)c2)cc1)Nc1cc(Cl)ccc1O`, the GI50 is 14.7 µM and the TGI amounted to 66.3 µM. The compound `CCCC(=O)c1ccc(=O)n(C)c1` showed a TGI greater than 100 µM. As for `CCOC(=O)Cn1c(-c2nonc2NC(=O)c2ccccc2F)nc2ccccc21`, the GI50 is 47.6 µM and the TGI is greater than 100 µM. Consider `O=C1/C(=C/c2ccc(Cl)c(Cl)c2)CNC/C1=C\c1ccc(Cl)c(Cl)c1`, for which the TGI was 47 µM.

The compound `O=C(N[C@H]1CCC[C@H]1C(=O)Nc1ccc(C(F)(F)F)cc1)OCc1ccccc1` showed a TGI greater than 100 µM.

With `NC(=O)c1sc(-n2cnc3ccc(C(F)(F)F)cc32)cc1OCc1ccccc1Br`, the GI50 was 3.87 µM and the TGI was greater than 25 µM.

Regarding `COc1cc(OC)c(F)c(COc2cnc(Nc3cnn(CCO)c3)nc2)c1F`, the GI50 is 1.97 µM and the TGI is greater than 100 µM.

`CCCCOc1ccc2c(c1)CC[C@@H]1[C@@H]2CC[C@]2(C)C(=O)N(CCCC)C(=O)C[C@@H]12` registered a TGI greater than 100 µM.
